# Assay results from PubChem BioAssay AID485344 (National Center for Advancing Translational Sciences (NCATS), 2010).
# About 6,900 (2%) of roughly 340,000 compounds were called active. Cut-off read from the data, not from the text of the source: active = inhibition above about 30%; inactive = below that, where a call was filed. The entries are a selection whose mix differs from that of the whole data set. The source gives no active or inactive call for entries shown without one.
# Target: D(2) dopamine receptor (Homo sapiens) (UniProt P14416)
# UniProt P14416, sequence (P14416 whole entry, looked up): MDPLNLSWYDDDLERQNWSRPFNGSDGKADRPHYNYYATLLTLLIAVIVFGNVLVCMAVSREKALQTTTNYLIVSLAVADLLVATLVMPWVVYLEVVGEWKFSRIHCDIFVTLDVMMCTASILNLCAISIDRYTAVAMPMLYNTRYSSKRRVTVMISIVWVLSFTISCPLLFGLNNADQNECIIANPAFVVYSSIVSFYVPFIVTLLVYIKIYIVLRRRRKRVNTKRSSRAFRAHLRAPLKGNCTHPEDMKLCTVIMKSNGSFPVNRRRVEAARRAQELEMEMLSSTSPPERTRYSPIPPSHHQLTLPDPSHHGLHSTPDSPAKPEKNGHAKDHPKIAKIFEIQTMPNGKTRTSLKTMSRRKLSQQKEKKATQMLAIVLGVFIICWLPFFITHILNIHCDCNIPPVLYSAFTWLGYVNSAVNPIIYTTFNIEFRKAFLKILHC
# Assay: HTS Assay for Allosteric Antagonists of the Human D2 Dopamine Receptor: Primary Screen for Antagonists; note: 0% is about no effect
# Details: HEK293 TREx D2 cells, calcium flux, dopamine EC80; at 10 µM; stronger effect = higher value
# Outline: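 Tetracycline-induced HEK293 TREx cells expressing D2 receptor forced-coupled to calcium signalling, loaded with no-wash calcium dye. Compounds added and calcium flux read 180 s, then dopamine added at EC80 and read a further 180 s.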
row,Structure (SMILES),inhibition
1,COCCc1nn2c(=O)cc(COC(=O)c3ccco3)nc2s1,21.4%
2,Cc1ccccc1CNC(=O)C(=O)NCC(c1ccc2c(c1)OCO2)N1CCOCC1 (configuration not stated),27.7%
3,CN(CCCNC(=O)Cn1ncc2c([nH]c3ccccc32)c1=O)Cc1ccccc1,-21.4%
4,Cc1ccccc1S(=O)(=O)Cc1ccc(C(=O)NCCc2ccccc2)o1,-14.3%
5,Cc1ccc2c(c1)-c1c(cnn1CC(=O)N1CCN(c3cc(C)ccc3C)CC1)CO2,-14.7%
6,CC1CCN(c2csc3ccc(F)cc3c2=O)CC1,-3.08%
7,COC(=O)c1cc(S(=O)(=O)N2CCN(c3cc(Cl)ccc3C)CC2)c[nH]1,17.9%
8,CC1=C(C(N)=O)C(c2ccccc2F)n2nc(-c3ccc(Cl)cc3)nc2N1 (configuration not stated),0.0331%
9,Cc1ccc(CNC(=O)Cn2cc3c(n2)-c2c(oc(C(=O)N4CCOCC4)c2C)CC3)cc1,2.52%
10,Cc1cc(C)c2oc(C(=O)Nc3c(C(=O)c4ccccc4)oc4ccccc34)cc(=O)c2c1,-11%
11,COc1ccccc1CNc1ncnc2c1c(-c1ccccc1)cn2-c1ccc(Br)cc1,-6.26%
12,O=c1cc(N2CCN(Cc3ccccc3)CC2)[nH]c(=O)n1-c1ccc(Br)cc1,active: 38.2%
13,CCN(CC)c1ccc(NC(=O)Cn2c3ncccc3c(=O)n2-c2ccccc2)c(C)c1,1.17%
14,COc1cc2c(=O)c(C(=O)c3ccc(F)cc3)cn(Cc3cccc(F)c3)c2cc1OC,18.9%
15,Cc1ccc(C(=O)NCCC(C)C)cc1NC(=O)c1nsc2ccccc12,6.55%
16,CCOc1ccc(-c2nc(C(N)=O)c3c(n2)n(-c2ccc4c(c2)OCO4)c(=O)n3CC)cc1,8.93%
17,O=C(CN1CCN(Cc2ccc(F)cc2Cl)C1=O)NCCc1ccc(Cl)cc1,12.4%
18,O=C1CN(C(=O)c2ccc(S(=O)(=O)N3CCCC3)cc2)C(c2ccccc2)c2cc(Cl)ccc2N1 (configuration not stated),-3.77%
19,CCOc1ccc(C(=O)Nc2ccc3oc(-c4cccc5ccccc45)nc3c2)cc1,-5.85%
20,Cc1ccc(C(=O)c2cn(CC(=O)NCc3ccccc3)c3nc(C)ccc3c2=O)cc1,7.85%
21,COc1ccc(OC)c(NC(=O)N2CC(C)Oc3ccc(C)cc32)c1 (configuration not stated),16.3%

row,Structure (SMILES),inhibition
1,Cc1ccc(O)c(Nc2nc3ccccc3c3nncn23)c1,-0.48%
2,COc1cccc(C(=O)Nc2ccc3nc4n(c(=O)c3c2)CCCCC4)c1,1.88%
3,COc1ccc(C(=O)Nc2nc(-c3nnn(-c4ccc(F)cc4F)c3C)ns2)cc1,-6.73%
4,COc1ccc2c(c1)-c1ccccc1S(=O)(=O)N2C,active: 33.7%
5,O=C(Nc1c(C(=O)c2ccccc2)oc2ccccc12)c1ccc(F)cc1,-7.5%
6,Cc1c(CN(C)C(=O)c2cc(-c3ccccc3)nc3ccc(Br)cc23)cnn1C,-5.15%
7,COc1cc(CNCCSc2nnnn2C)ccc1OCc1ccccc1C,14%
8,Cc1ccccc1CNC(=O)c1ccc(NC(=O)N2CCCCc3ccccc32)cc1,12.2%
9,CCCOc1ccc(C2=NC(c3ccncc3)=Nc3ccc(C)cc3N2)cc1,-3.58%
10,Cc1ccc(-c2n[nH]c3c2C(c2ccccc2Cl)N(c2ccc(C(=O)O)cc2)C3=O)cc1 (configuration not stated),7.51%
11,Cc1oc2ccc(NS(=O)(=O)c3ccc(F)cc3)cc2c1C(=O)O,2.27%
12,CSc1ncc(Cl)c(C(=O)Nc2c(C(=O)Nc3cccc(C)c3)oc3ccccc23)n1,5.83%
13,Cc1ccccc1-c1noc(-c2ccc(N3CCC(C)CC3)c([N+](=O)[O-])c2)n1,-10%
14,CCc1ccccc1NC(=O)Cn1c(=O)n(Cc2ccccc2)c(=O)c2c(C)c(C(=O)N(C)C)sc21,16.5%
15,CCOc1ccc(NC(=O)Cn2c(=O)cc(C)c3c(C)nn(C)c32)cc1,7.79%
16,Cc1csc2nc(-c3cccc(NS(C)(=O)=O)c3)cn12,-6.32%
17,Cc1ccccc1CN1c2ccccc2-c2nc(SCC(=O)c3ccc(Cl)cc3)ncc2S1(=O)=O,3.34%
18,Cc1ccc(-c2nc(C)c(CCNC(=O)C(=O)Nc3cc(C)ccc3C)s2)cc1,-3.2%
19,CC1CCN(S(=O)(=O)c2cc(C(=O)NCc3ccc(N(C)C)cc3)n(C)c2)CC1,21.9%
20,O=C(CN1C(=O)CC(c2ccco2)Sc2ccccc21)Nc1cccc(C(F)(F)F)c1 (configuration not stated),-5.08%
21,CC(C)c1ccc(S(=O)(=O)c2cn(CC(=O)Nc3ccc(F)cc3)c3ccccc3c2=O)cc1,10.8%

row,Structure (SMILES),inhibition
1,S=C1NC2(CCCCC2)Cc2ccccc21,active: 32%
2,CCc1ccc(CNC(=O)c2cnc(N3CCCCC3)c3ccccc23)cc1,-20.7%
3,COc1ccc(S(=O)(=O)Nc2cccc(-c3ccc(N4CCCCCC4)nn3)c2)cc1F,1.81%
4,COc1ccc(CCNC(=O)C(=O)Nc2ccc(C)c(C)c2)cc1,-7.05%
5,Brc1ccc(-c2cn3c(n2)SCC3)cc1,active: 33.1%
6,Cc1sc2ncn(CC(=O)N3CCN(c4ccccc4F)CC3)c(=O)c2c1S(=O)(=O)N1CCN(c2ncccn2)CC1,8.72%
7,CCN(CC)C(=O)c1cc(S(=O)(=O)N2CCCCC2)c[nH]1,active: 32.7%
8,O=c1c(-c2cc(-c3ccc(Cl)cc3)nc3c2COc2ccccc2-3)coc2ccccc12,-3.76%
9,COc1ccccc1N1CCN(S(=O)(=O)c2c(C)[nH]c(C)c2C(=O)N2CCCC2)CC1,active: 30.7%
10,CCC(=O)N1CCc2cc(Br)cc(S(=O)(=O)CCC(=O)NCCc3ccc(C)cc3)c21,15.2%
11,C=CCOc1ccccc1CN(C(=O)CCl)c1ccc2c(c1)OCO2,active: 33%
12,Cc1cc(F)ccc1NC(=O)C(C(C)C)N1Cc2ccccc2C1=O (configuration not stated),8.68%
13,COc1ccccc1NC(=O)c1nnn(-c2ccc(F)cc2)c1C,17.5%
14,COc1ccc(CCNCc2c(-c3ccccc3)n(C)c3ccccc23)cc1,active: 45.6%
15,CCc1ccccc1OCCSc1nc(-c2cccs2)nc2cc(=O)[nH]n12,2.86%
16,CCCCCn1c(NCc2ccco2)nc2ccccc21,active: 34%
17,COc1ccc(C(=O)N2CC(=O)Nc3ccc(C)cc3C2c2ccc(F)cc2)c(OC)c1 (configuration not stated),-5.07%
18,CC(=O)Nc1ccc(S(=O)(=O)NC2=NCN(C(C)C)CN2)cc1,-18.6%
19,COc1ccc(/C=C/C(=O)Nc2ccccc2C(=O)NCC(c2ccc(OC)cc2)N(C)C)cc1 (configuration not stated),active: 60.2%
20,O=c1[nH]c2ccc(NCc3ccc(-c4ccccc4F)o3)cc2[nH]1,15.3%
